# Counter-ions that a name gives are not always drawn. The full ranking holds about 2,800 compounds; the median of “cell viability relative to vehicle” is about 1.1, and the lowest 2% start at about 0.19. The list shows a part of the results.
# Test system: NCI-H2228 parental
# Experiment: cell viability relative to vehicle (fraction of vehicle); NCI-H2228 is an ALK-positive lung cancer line and DTP means drug-tolerant persister; higher = less growth inhibition
# Details: 100 nM; treatment time 6 days
# In short: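 Parental NCI-H2228 cells and drug-tolerant persister cells (made with 1000 nM of a targeted drug for 13 days) were seeded in 384-well plates. The next day, the 3114-agent TargetMol anti-cancer compound library was added at 100 nM, with DMSO as vehicle. After 6 days, ATP was read with the CellTiter-Glo 3D Cell Viability Assay. Each value is cell viability relative to vehicle-treated cells.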
row,Compound,cell viability
1,CC(C)COc1ccc(CNC(=O)N(Cc2ccc(F)cc2)C2CCN(C)CC2)cc1 [Pimavanserin tartrate],1.13
2,CC(C)COc1ccc(CNC(=O)N(Cc2ccc(F)cc2)C2CCN(C)CC2)cc1 [Pimavanserin],1.16
3,CN(c1ccccc1CNc1nc(Nc2ccc3c(c2)CC(=O)N3)ncc1C(F)(F)F)S(C)(=O)=O,1.16
4,S=C(S)N1CCCC1 [Pyrrolidinedithiocarbamate ammonium],1.17
5,Cc1ccc(S(=O)(=O)Cc2nc(-c3ccc(C(=O)NCc4cccnc4)cc3)oc2C)cc1,0.875
6,CC/C(=C(\c1ccc(O)cc1)c1ccc(OCCNC)cc1)c1ccccc1 [(E/Z)-Endoxifen],1.17
7,CCn1cc(C(=O)O)c(=O)c2c(N)c(F)c(NC3CCCCC3)cc21,1.16
8,COc1cc(-c2oc3cc(O)cc(O)c3c(=O)c2O)ccc1O [Isorhamnetin],1.13
9,Cc1cc(Cn2nnc3c(-c4ccco4)nc(N)nc32)ccc1N [Vipadenant],1.13
10,CONC(=O)Nc1ccc(-c2sc3c(c2CN(C)C)c(=O)n(-c2ccc(OC)nn2)c(=O)n3Cc2c(F)cccc2F)cc1 [Relugolix],1.05
11,COc1cccc2c1C(=O)c1c(O)c3c(c(O)c1C2=O)C[C@@](O)(C(C)=O)C[C@@H]3O[C@H]1C[C@H](N)[C@H](O)[C@H](C)O1 [Daunorubicin hydrochloride],0.263
12,CNC(=O)c1cc(Oc2ccc(NC(=O)Nc3ccc(Cl)c(C(F)(F)F)c3)cc2)ccn1 [Sorafenib tosylate],1.16
13,CNC(=O)c1cc(Oc2ccc(NC(=O)Nc3ccc(Cl)c(C(F)(F)F)c3)cc2)ccn1 [Sorafenib],1.05
14,CNC(=O)c1ccccc1Nc1cc(Nc2ccc(N3CCOCC3)cc2OC)ncc1C(F)(F)F,0.783
15,OCc1ccccc1O[C@@H]1O[C@H](CO)[C@@H](O)[C@H](O)[C@H]1O [Salicoside],1.09
16,C=CC1=C(C(=O)O)N2C(=O)[C@@H](NC(=O)/C(=N\O)c3csc(N)n3)[C@H]2SC1 [Cefdinir],1.13
17,CC(=O)NS(=O)(=O)c1ccc(N)cc1 [Sulfacetamide sodium salt hydrate],1.1
18,Cc1cn([C@H]2C=C[C@@H](CO)O2)c(=O)[nH]c1=O [Stavudine],1.3
19,C=C1CC[C@@H]2[C@](C)(CO)[C@H](O)CC[C@@]2(C)[C@@H]1C/C=C1/C(=O)OC[C@H]1O [Andrographolide],1.02
20,Cc1c(-c2cnccn2)ssc1=S [Oltipraz],1.06
21,COc1ccc(-n2c(SCCCN3C(=O)c4cccc5cccc(c45)C3=O)nnc2-c2ccncc2)cc1,0.744
22,C[C@@H]1C[C@H]2[C@@H]3CCC4=CC(=O)C=C[C@]4(C)[C@@]3(F)[C@@H](O)C[C@]2(C)[C@@]1(O)C(=O)COP(=O)(O)O [Dexamethasone Sodium Phosphate],0.778
23,Cc1cccc(CC(=O)N2CCc3c2ccc(-c2cn(C)c4ncnc(N)c24)c3F)n1,1.08
24,CCn1c2ccccc2c2cc(CNCc3ccccc3OC)ccc21 [HLCL-61 hydrochloride],1.15
25,CC[C@H](CO)Nc1nc(NCc2ccccc2)c2ncn(C(C)C)c2n1 [Roscovitine],0.932
26,OCCN(CCO)c1nc(N2CCCCC2)c2nc(N(CCO)CCO)nc(N3CCCCC3)c2n1 [Dypyridamole],0.997

row,Compound,cell viability
1,CN(c1nccc(=O)[nH]1)C1CCN(c2nc3ccccc3n2Cc2ccc(F)cc2)CC1 [Mizolastine],1.12
2,CC[C@@H](C)Nc1cc(C(=O)N[C@H]2C[C@H]3CC[C@@H](C2)N3c2ccc(C(=O)C3CC3)cn2)c(C)cc1C(N)=O,0.256
3,CC(=O)OC(C)OC(=O)C(C)c1ccc(-c2ccccc2)c(F)c1 (stereo unspecified) [Flurbiprofen Axetil],1.13
4,Cc1ccc(F)c(NC(=O)Nc2ccc(-c3cccc4[nH]nc(N)c34)cc2)c1 [Linifanib],1
5,C[C@]12CC[C@@H]3c4ccc(OC(=O)c5ccccc5)cc4CC[C@H]3[C@@H]1CC[C@@H]2O [Estradiol benzoate],1.15
6,O=C[C@H](O)[C@@H](O)[C@H](O)[C@H](O)CO[C@H]1O[C@H](CO[C@H]2O[C@H](CO)[C@H](O)[C@H](O)[C@H]2O)[C@H](O)[C@H](O)[C@H]1O [Manninotriose],1.11
7,CC(C)(C)[N+]([O-])=Cc1ccc(S(=O)(=O)O)cc1S(=O)(=O)O,1.06
8,CC(=O)OC(C)(C)CCC(=O)[C@](C)(O)[C@H]1[C@H](O)C[C@@]2(C)[C@@H]3CC=C4[C@@H](C[C@H](O)[C@@H](O)C4(C)C)[C@]3(C)C(=O)C[C@]12C [Cucurbitacin IIA],1.03
9,O=C(/C=C\n1cnc(-c2cc(C(F)(F)F)cc(C(F)(F)F)c2)n1)N1CC(F)(F)C1,0.514
10,CN(CCNc1ccnc2cc(Cl)ccc12)CCNc1ccnc2cc(Cl)ccc12,1.11
11,CC(C)OC(=O)C1=CN(C(=O)c2ccc(F)c(F)c2)CC(C)(C)c2c1[nH]c1ccccc21 [Turofexorate Isopropyl],0.951
12,Clc1ccc(C(c2c[nH]c3ccccc23)c2c[nH]c3ccccc23)cc1,1.01
13,O=C(Nc1ccncc1)c1cc([N+](=O)[O-])ccc1Cl,1.09
14,CCCCCCNC(=O)Nc1ccc(S(=O)(=O)Nc2ccc(CCNC[C@H](O)COc3ccc(O)cc3)cc2)cc1,1.16
15,COCCCN1CCC(NC(=O)c2cc(Cl)c(N)c3c2OCC3)CC1 [Prucalopride],1.18
16,Cn1c(-c2ccccc2C(F)(F)F)nnc1C12CCC(c3noc(C4CC(F)(F)C4)n3)(CC1)CC2,1.16
17,CC(C)(O)CNc1ncc(-c2ccnc(Nc3ccnc(Cl)c3)n2)c(CC2CC2)n1,0.891
18,CNc1nc(Nc2cn(C(C)(C)C#N)nc2C)ncc1C(F)(F)F,1.07
19,C=CC(=O)N1C/C(=C\c2ccc([N+](=O)[O-])cc2)C(=O)/C(=C/c2ccc([N+](=O)[O-])cc2)C1,0.992
20,Cc1cc(CN2CCN(c3c(Br)cnc4nc(-c5ccc(N6CCN(C)CC6)cc5)[nH]c34)CC2)no1,1.04
21,CCOC(=O)/C=C/c1ccc(O)c(O)c1 [Ethyl caffeate],1.03
22,NC(=O)c1ccc(OCCCN2CC3CCCC3C2)cc1 (stereo unspecified),1.17
23,COc1ccc(C2CC(=O)c3c(O)cc(OC4OC(COC5OC(C)C(O)C(O)C5O)C(O)C(O)C4O)cc3O2)cc1OC (stereo unspecified) [Methyl hesperidin],0.998
24,O=C(Oc1cc(S(=O)(=O)c2ccccc2)ccc1[N+](=O)[O-])c1ccc(Cl)cc1,1.07
25,COc1cc(N2CCOCC2)ccc1Nc1ncc(F)c(Nc2ccccc2NS(C)(=O)=O)n1,0.855
26,"N[C@@H](Cc1cc(I)c(Oc2ccc(O)c(I)c2)c(I)c1)C(=O)O [O-(4-Hydroxy-3-iodophenyl)-3,5-diiodo-L-tyrosine]",1.15

row,Compound,cell viability
1,N[C@@H](Cc1cc(I)c(Oc2ccc(O)c(I)c2)c(I)c1)C(=O)O [Liothyronine sodium],1.07
2,CCN1CCN(Cc2ccc(C(=O)Nc3ccc(C)c(Oc4ccc5c(c4)CC(=O)N5)c3)cc2C(F)(F)F)CC1,1.1
3,CNc1nc(-c2cccc(NC(=O)c3ccc(C(=O)OC)cc3)c2)c2cc(OC)c(OC)cc2n1 [Lotamilast],0.999
4,Nc1c2ccccc2nc2ccccc12 [Aminacrine],1.04
5,N#Cc1cc2cc(CN3CCC(Nc4ncnc5sc(CC(F)(F)F)cc45)CC3)ccc2[nH]1,1.12
6,Cc1ccc(=O)n(-c2ccccc2)c1 [Pirfenidone],0.888
7,C[C@@H](O[C@H]1OCCN(Cc2n[nH]c(=O)[nH]2)[C@H]1c1ccc(F)cc1)c1cc(C(F)(F)F)cc(C(F)(F)F)c1 [Aprepitant],0.985
8,Cc1cn(-c2cc(NC(=O)c3ccc(C)c(Nc4nccc(-c5cccnc5)n4)c3)cc(C(F)(F)F)c2)cn1 [Nilotinib],1.26
9,NC(=O)c1ccc(-c2nc(-c3ccccn3)c(-c3ccc4c(c3)OCO4)[nH]2)cc1,1.31
10,CCCNC(=O)Nc1ccc(Oc2ncnc3cc(OC)c(OC)cc23)cc1Cl,1.08
11,COC1=CC(=O)c2ccccc2C1=O [2-Methoxynaphthoquinone],1.04
12,CS(=O)(=O)c1cccc(C[C@H](NC(=O)c2c(Cl)cc3c(c2Cl)CCN(C(=O)c2ccc4ccoc4c2)C3)C(=O)O)c1 [Lifitegrast],1.17
13,CC(=O)c1c(C)c2cnc(Nc3ccc(N4CCNCC4)cn3)nc2n(C2CCCC2)c1=O [Palbociclib],0.869
14,CC(=O)c1c(C)c2cnc(Nc3ccc(N4CCNCC4)cn3)nc2n(C2CCCC2)c1=O [Palbociclib Isethionate],1.11
15,COc1ccc(/C(C#N)=C/c2ccc(N3CCC(O)CC3)s2)cc1OC,1.07
16,COc1ccc(-c2nc(-c3cc(C(F)(F)F)cc(C(F)(F)F)c3)n(Cc3ccc(C(N)=O)cc3)c2-c2ccc(OC)cc2)cc1 [Apoptozole],0.945
17,COc1ccc2cc(C(C)C(=O)Oc3ccc(C(N)=S)cc3)ccc2c1 (stereo unspecified),1.09
18,COc1nccnc1NS(=O)(=O)c1ccc(N)cc1 [Sulfalen],1.17
19,CC(C)(C)c1ccc(S(=O)(=O)/C=C/C#N)cc1,1.09
20,N#CCC(=O)NN [Cyanoacetohydrazide],1.23
21,CC(N)CCCC(C)(C)O (stereo unspecified) [Heptaminol hydrochloride],0.996
22,CNC(=O)c1cc(Oc2ccc3nc(N[C@@H]4CCCC[C@H]4O)sc3c2)ccn1,1.09
23,Cn1cc(/C=C2\C(=O)Nc3cccnc32)c2ccccc21,0.883
24,CNC(=O)c1ccc(Nc2ncc(C(F)(F)F)c(NCc3nccnc3N(C)S(C)(=O)=O)n2)cc1 [Defactinib],1.03
